PMC7409549, “A time-resolved interaction analysis of Bem1 reconstructs the flow of Cdc42 during polar growth” (Life Science Alliance, 2020)
Results are given in words; binding and its absence hold for the method and conditions named. Binding seen in cells or lysates may run through a third protein. Some results given as binding are weak or reduced against the parent protein; the word gives no strength. For some assays here: Where a sequence is shown, tags or fusion partners need not be part of it.

Legend:
[1] = target: T1, Bem1-mCherry-Cub-RGFP (S. cerevisiae) (UniProt P29366); assay: split reporter; SPLIFF as a9, measured at the cell front during bud site assembly and bud growth (PCDII)
T1 sequence: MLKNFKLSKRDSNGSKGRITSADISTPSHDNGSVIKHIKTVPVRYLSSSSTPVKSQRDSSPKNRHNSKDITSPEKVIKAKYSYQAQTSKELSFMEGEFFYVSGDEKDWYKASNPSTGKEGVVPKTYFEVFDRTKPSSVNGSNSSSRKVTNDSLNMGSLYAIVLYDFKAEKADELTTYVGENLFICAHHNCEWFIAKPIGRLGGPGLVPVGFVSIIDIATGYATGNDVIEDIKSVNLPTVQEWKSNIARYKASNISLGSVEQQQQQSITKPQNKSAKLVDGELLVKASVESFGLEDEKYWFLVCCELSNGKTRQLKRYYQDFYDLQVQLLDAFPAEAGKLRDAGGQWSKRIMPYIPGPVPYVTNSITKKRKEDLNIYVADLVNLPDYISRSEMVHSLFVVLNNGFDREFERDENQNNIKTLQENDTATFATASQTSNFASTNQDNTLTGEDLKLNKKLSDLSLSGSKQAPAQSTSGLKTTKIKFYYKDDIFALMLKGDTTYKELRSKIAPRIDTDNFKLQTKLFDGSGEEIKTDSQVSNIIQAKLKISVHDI

[2] = target: T1, Bem1-mCherry-Cub-RGFP (S. cerevisiae); assay: split reporter; SPLIFF as a9, measured at the bud neck from completion of acto-myosin ring contraction until abscission (PCDIII)
[3] = target: T2, Bud6_(1-364)CRU (S. cerevisiae) (UniProt P41697); assay: split reporter; split-ubiquitin (Split-Ub): CRU and Nub fusions co-expressed in yeast cells, spotted in 10-fold serial dilutions on medium with 1 mg/ml 5-FOA and copper, 30°C; growth = interaction
T2 sequence: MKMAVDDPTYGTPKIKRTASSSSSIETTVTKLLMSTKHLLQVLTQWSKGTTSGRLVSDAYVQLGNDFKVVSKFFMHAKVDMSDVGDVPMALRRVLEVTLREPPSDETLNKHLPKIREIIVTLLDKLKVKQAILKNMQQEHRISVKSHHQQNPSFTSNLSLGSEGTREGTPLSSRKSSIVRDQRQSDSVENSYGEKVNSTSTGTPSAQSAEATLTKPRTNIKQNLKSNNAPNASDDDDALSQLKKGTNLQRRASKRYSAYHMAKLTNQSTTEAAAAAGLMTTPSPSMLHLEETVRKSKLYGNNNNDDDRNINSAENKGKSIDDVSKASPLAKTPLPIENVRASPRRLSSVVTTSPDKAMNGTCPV

Fir1CRU (S. cerevisiae) = target: T3, Fir1CRU (S. cerevisiae) (UniProt P40020); assay: as above
T3 sequence: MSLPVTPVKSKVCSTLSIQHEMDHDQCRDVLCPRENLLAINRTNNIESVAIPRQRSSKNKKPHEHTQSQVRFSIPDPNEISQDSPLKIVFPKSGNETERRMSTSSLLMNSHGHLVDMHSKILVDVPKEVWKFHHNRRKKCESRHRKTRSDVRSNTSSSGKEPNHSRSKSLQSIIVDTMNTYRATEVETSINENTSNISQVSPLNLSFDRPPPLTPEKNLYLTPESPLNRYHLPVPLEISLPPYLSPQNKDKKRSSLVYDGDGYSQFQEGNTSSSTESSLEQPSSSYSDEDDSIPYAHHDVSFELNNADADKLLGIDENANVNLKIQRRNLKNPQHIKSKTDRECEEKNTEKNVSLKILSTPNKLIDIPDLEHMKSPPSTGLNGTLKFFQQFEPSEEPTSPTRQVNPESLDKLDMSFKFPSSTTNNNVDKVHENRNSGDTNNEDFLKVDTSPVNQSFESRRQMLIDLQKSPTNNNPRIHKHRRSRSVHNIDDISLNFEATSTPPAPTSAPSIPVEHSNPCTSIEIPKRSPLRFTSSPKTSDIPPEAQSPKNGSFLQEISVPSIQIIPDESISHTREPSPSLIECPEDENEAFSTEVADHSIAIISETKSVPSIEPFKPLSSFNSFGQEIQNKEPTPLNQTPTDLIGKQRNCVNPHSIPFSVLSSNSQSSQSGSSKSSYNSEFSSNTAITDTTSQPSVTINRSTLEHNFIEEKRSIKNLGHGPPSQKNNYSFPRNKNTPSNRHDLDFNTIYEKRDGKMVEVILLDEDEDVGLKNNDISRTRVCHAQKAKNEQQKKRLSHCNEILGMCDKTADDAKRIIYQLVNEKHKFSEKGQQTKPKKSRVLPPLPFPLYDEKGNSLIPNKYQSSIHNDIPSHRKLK

[4] = target: T4, Bem1-Cub-RUra3 (S. cerevisiae) (UniProt P29366); assay: split reporter; split-ubiquitin (Split-Ub): a-cells with a Cub-RUra3 (CRU) fusion mated with α-cells with Nub fusions (P_CUP1), diploids as quadruplets on SD medium with 1 mg/ml 5-FOA and copper; growth = interaction; detects direct and indirect interactions
T4 sequence: T1 sequence

Nba1CRU (S. cerevisiae) = target: T5, Nba1CRU (S. cerevisiae) (UniProt Q08229); assay: as above
T5 sequence: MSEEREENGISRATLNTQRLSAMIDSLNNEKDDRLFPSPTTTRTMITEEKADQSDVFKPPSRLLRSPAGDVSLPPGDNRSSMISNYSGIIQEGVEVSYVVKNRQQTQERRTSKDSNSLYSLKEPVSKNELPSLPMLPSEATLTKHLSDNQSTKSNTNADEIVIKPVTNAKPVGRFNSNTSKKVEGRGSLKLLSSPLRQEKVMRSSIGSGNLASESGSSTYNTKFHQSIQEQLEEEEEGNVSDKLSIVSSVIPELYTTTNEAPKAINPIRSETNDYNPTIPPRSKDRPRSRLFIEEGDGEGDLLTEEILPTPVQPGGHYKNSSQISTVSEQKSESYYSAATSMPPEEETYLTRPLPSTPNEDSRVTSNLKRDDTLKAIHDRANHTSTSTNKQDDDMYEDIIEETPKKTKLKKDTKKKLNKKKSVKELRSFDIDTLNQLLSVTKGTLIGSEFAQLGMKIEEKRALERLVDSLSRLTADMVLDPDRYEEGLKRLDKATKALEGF

[5] = target: T1, Bem1-mCherry-Cub-RGFP (S. cerevisiae); assay: split reporter; SPLIFF (split-ubiquitin with mCherry-Cub-RGFP, CCG): a-cells with the CCG fusion mated with α-cells with Nub-HA fusions; conversion of CCG to CC measured by time-lapse microscopy at the site of cell fusion (PCDI); a significant positive slope = interaction
[6] = target: T6, GST-Bem1_(140-271) (S. cerevisiae) (UniProt P29366); assay: pull-down; GST fusions immobilised on glutathione sepharose beads from E. coli extracts, incubated 1 h at 4°C with yeast cell extracts; glutathione eluates blotted (anti-GFP or anti-Myc); only the target purified
T6 sequence: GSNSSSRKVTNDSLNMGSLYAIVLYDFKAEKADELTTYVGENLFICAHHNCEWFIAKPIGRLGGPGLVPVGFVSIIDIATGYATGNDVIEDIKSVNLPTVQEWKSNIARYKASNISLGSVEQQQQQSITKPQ

GST-Nbp2 (S. cerevisiae) = target: T7, GST-Nbp2 (S. cerevisiae) (UniProt Q12163); assay: as above
T7 sequence: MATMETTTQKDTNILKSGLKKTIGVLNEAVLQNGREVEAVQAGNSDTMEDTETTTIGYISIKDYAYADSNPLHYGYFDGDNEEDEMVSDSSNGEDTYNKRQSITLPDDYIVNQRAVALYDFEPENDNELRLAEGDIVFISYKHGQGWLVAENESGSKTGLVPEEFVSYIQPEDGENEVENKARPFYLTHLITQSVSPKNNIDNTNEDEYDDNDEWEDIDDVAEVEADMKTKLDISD

Measured: binding

B1: Nub-Boi2 (protein, UniProt P39969 1-1040)
chain: MSNDREVPTLSQLNTTVSRDKDVSDTLSPDFDSKGSATGRDGGNFPMYIAINEYFKRMEDELDMKPGDKIKVITDDEEYKDGWYFGRNLRTNEEGLYPVVFTQKITVEKAPTLMRAKSTKRIYSPLTNEDPLLSSTFISENDSNSELPTPQPIETAASISRTANGKIERNLSLKNTMSDIDNALLEFKDDSIGPPDRFINSGRDEEHSITHETILSATDGLDVVESNSKPTTSSSTGFLNGDLENQATLINGIDTTKLNPVEAEFWSPEEITAYFIMEGYDVQSASRFQKHKISGKILLELELVHLKELDINSFGTRFEIFKEIEKIKEAIRTNGRSLNRASKTNNANIYNQLMPPANVDQRASYRGHVRKTSQSLEDLPSQQNFIPTPRNTRNSSASKHRPKSLVFDSQEANANIAPDVQIPQVVEEMAGNENLFVSPRRAPKPPSYPSPAQPPKSPLLNNTRTSPSPAQLYSWQSPTLSFSGPKRTSYIDQYSSSDSNFNSRSALPKNNQGGGKALSPIPSPTRNSVRNEDSEGKLTSSSKRNSVPYYGYAPESSSDRKSSCSSHEEEQFQETMNTFERPTSSIYADGSTIASISNDKLAHEKEGKKKPTRHSSSLSSKSKSDSRRNSSLKRSSSASRTSSFKKSSFMLSPFRQQFTDNAARSSSPEENPITSMPSEKNSSPIVDKKSSKKSRSKRRSVSAKEAEIFTETVKDDKNKRSASEAIKGETLKGKSLRQMTARPVAKKKQTSAFIEGLRSISVKEAMKDADFSGWMSKKGSGAMSTWKTRFFTLHGTRLSYFSSTTDTRERGLIDITAHRVVPAKEDDKLVSLYAASTGKGRYCFKLLPPQPGSKKGLTFTQPRTHYFAVDNKEEMRGWMAALIKTTIDIDTSVPIISSYTTPTVSLSKAQEMLAEAREETKLREQQMLENEEDEDQFLWDQQQLQQQQHDNNQGQADRTISASTQRTSDEDNTISTPNLSSANNTTIGSNGFSSPFLLASGLLSPGVARNSSMRGTEKKGKFSTEEDYFGDNSKHKTDKI
not listed: [6] | GST-Nbp2 (S. cerevisiae)
binds: all other assays above

B2: Cla4_(1-471)9xMyc (domain or fragment, UniProt P48562 1-471)
chain: MSLSAAANKISDNDFQNIGPAPRPPSSNSQGRTCYNQTQPITKLMSQLDLTSASHLGTSTSKKKSGWVSYKDDGILSFIWQKRYLMLHDSYVALYKNDKQNDDAILKIPLTSIISVSRTQLKQYCFELVRCSDRNSVSSGSSSSLNVSSDSNSKKSIYIATKTESDLHSWLDAIFAKCPLLSGVSSPTNFTHKVHVGFDPETGSFVGMPTNWEKLLKHSRITGEDWNNNSAAVIQVLQFYQEYNGAGNPTNTLDKPQSGETSSSQKSLPNSYNDNKLRNNSVNSKSSSGVSSSMVSQRKTSQPPNTKSPVSLGSGSLPPINTKLPTSQSNIPRHLQNVPNQQYPKMRNGHSPTNGQFPRGPMHPNNSQRSLQQQQQQQQQQKQQHQQYPYHHQGPSPSPSPSPSPLNPYRPHHNMINPYSKQPQSPLSSQSTQNQAIPRYAQNSSPTAAHFQPQRTAPKPPISAPRAPYPS
binds: [6] | GST-Nbp2 (S. cerevisiae)

B3: Ste20 9xMyc fusion (protein, UniProt Q03497 1-939)
chain: MSNDPSAVSELPDKDSLDNGISNDNERAMGGNGDGGDGLRLPRTTGTLNVNALQKGTNAAHEAGGYKSMDPAKNAETTNDDDNNVVSLDDPIQFTRVSSSSVISGMSSSMSPHSNIDETKSLEAVTPNINTSNITPDHSADNTFSTINASESDHQFNDTLLSKLSLTDSTETIENNATVKHQQPVASSTVNSNKSSTDIRRATPVSTPVISKPSMTTTPRQINSASHSLSNPKHKQHKPKVKPSKPEAKSKPVSVKKSFPSKNPLKNSSPPKKQTEKSYYSSSSKKRKSGSNSGTLRMKDVFTSFVQNIKRNSQDDKRASSSSNNSSSSSITTALRISTPYNAKHIHHVGVDSKTGEYTGLPEEWEKLLTSSGISKREQQQNMQAVMDIVKFYQDVTETNGEDKMFKTFNTTTGLPGSPQVSTPPANSFNKFPPSTSDSHNYGSRTGTPMSNHVMSPTLNTDSSSANGKFIPSRPAPKPPSSASASAPIIKSPVMNSAANVSPLKQTHAPTTPNRTSPNRSSISRNATLKKEEQPLPPIPPTKSKTSPIISTAHTPQQVAQSPKAPAQETVTTPTSKPAQARSLSKELNEKKREERERRKKQLYAKLNEICSDGDPSTKYANLVKIGQGASGGVYTAYEIGTNVSVAIKQMNLEKQPKKELIINEILVMKGSKHPNIVNFIDSYVLKGDLWVIMEYMEGGSLTDVVTHCILTEGQIGAVCRETLSGLEFLHSKGVLHRDIKSDNILLSMEGDIKLTDFGFCAQINELNLKRTTMVGTPYWMAPEVVSRKEYGPKVDIWSLGIMIIEMIEGEPPYLNETPLRALYLIATNGTPKLKEPENLSSSLKKFLDWCLCVEPEDRASATELLHDEYITEIAEANSSLAPLVKLARLKKVAENMDADEDNDDDNDNEHINKTNNCDDNNDSKETVNLDVTEDDKQK
binds: [6] | GST-Nbp2 (S. cerevisiae)
